According to the antibiotic and cytotoxicity screens of Wong et al. (2023):
This is one part of the list.

How the values were obtained:
HSkMC = human skeletal muscle cells; assay: cytotoxicity call (relative viability < 0.9); settings: 10 µM
HepG2 = assay: cytotoxicity call (relative viability < 0.9); settings: 10 µM
S. aureus RN4220 = assay: growth inhibition call (relative growth <= 0.2); settings: 50 µM

| Compound | cytotoxicity call (HSkMC) | cytotoxicity call (HepG2) | growth inhibition call (S. aureus RN4220) |
| --- | --- | --- | --- |
| COc1cc([C@H]2OC[C@@H]3[C@H]2CO[C@H]3c2cc(OC)c(O[C@@H]3O[C@H](CO)[C@@H](O)[C@H](O)[C@H]3O)c(OC)c2)cc(OC)c1OC | inactive | inactive | inactive |
| O=C(C[C@H]1CC[C@H]2[C@@H](COC[C@H](O)CN2S(=O)(=O)c2ccccc2)O1)N1CCOCC1 | inactive | inactive | inactive |
| C[C@@H]1CN([C@@H](C)CO)C(=O)c2cc(NS(=O)(=O)c3ccc(Cl)cc3)ccc2O[C@@H](C)CCCCO[C@H]1CN(C)C(=O)Cc1ccccc1 | inactive | inactive | inactive |
| CNCc1cc2ccccc2s1 | inactive | inactive | inactive |
| C[C@@H]1CN([C@H](C)CO)C(=O)c2cccc(NS(=O)(=O)c3ccccc3)c2O[C@@H]1CN(C)C(=O)Nc1cccc2ccccc12 | inactive | inactive | inactive |
| CO[C@H]1CN(C)C(=O)c2ccc(NS(=O)(=O)c3cn(C)cn3)cc2OC[C@H](C)N(Cc2cccc(F)c2)C[C@H]1C | inactive | inactive | inactive |
| COc1ccc(C#Cc2ccc3c(c2)O[C@H](CN(C)C(=O)CN2CCOCC2)[C@@H](C)CN([C@@H](C)CO)S3(=O)=O)cc1 | inactive | inactive | inactive |
| CC(=O)N[C@@H]1[C@@H](O)[C@H](O)[C@@H](CO)O[C@H]1O | inactive | inactive | inactive |
| CCCCCC[C@@H](O)CC=CCCCCCCCC(=O)O | inactive | inactive | inactive |
| Cn1cnc(S(=O)(=O)N2C[C@@H](O)COC[C@H]3O[C@H](CC(=O)N4CCN(c5ccccc5)CC4)CC[C@@H]32)c1 | inactive | inactive | inactive |
| C[C@@H]1CCCCO[C@@H](CN(C)Cc2ccc(C(F)(F)F)cc2)[C@H](C)CN([C@@H](C)CO)C(=O)c2cc(NS(=O)(=O)c3ccccc3)ccc2O1 | inactive | active | inactive |
| CC(NC(CCc1ccccc1)C(=O)O)C(=O)N1Cc2ccccc2CC1C(=O)O (stereo not given) | inactive | inactive | inactive |
| CCS(=O)(=O)Nc1ccc2c(c1)C(=O)N(C)C[C@@H](OC)[C@@H](C)CN(Cc1ccccn1)[C@@H](C)CO2 | inactive | inactive | inactive |
| CC(C)NC(=O)Nc1ccc2c(c1)C(=O)N([C@@H](C)CO)C[C@@H](C)[C@H](CN(C)S(=O)(=O)c1cn(C)cn1)O2 | inactive | inactive | inactive |
| COc1ccc(NC(=O)Nc2ccc3c(c2)[C@H]2C[C@H](CC(=O)N4CCN(C)CC4)O[C@@H](CO)[C@H]2O3)cc1 | inactive | inactive | inactive |
| C[C@@H]1CCCCO[C@@H](CN(C)C(=O)Nc2cccc3ccccc23)[C@@H](C)CN([C@H](C)CO)C(=O)c2cc(NC(=O)CCCCCC(=O)Nc3ccccc3N)ccc2O1 | inactive | inactive | inactive |
| C[C@H]1CN([C@@H](C)CO)C(=O)c2cc(NC(=O)C3CCCCC3)ccc2O[C@@H]1CN(C)S(=O)(=O)c1cn(C)cn1 | inactive | inactive | inactive |
| C[C@@H]1CN([C@H](C)CO)C(=O)Cc2cc(NC(=O)CCC(F)(F)F)ccc2O[C@@H]1CN(C)Cc1ccc(C(=O)Nc2ccccc2N)cc1 | inactive | inactive | inactive |
| C[C@H]1CN([C@@H](C)CO)C(=O)c2cc(C#CC3(O)CCCC3)cnc2O[C@H]1CN(C)C(=O)Cc1cccnc1 | inactive | inactive | inactive |
| C[C@H](CO)N1C[C@H](C)[C@@H](CN(C)CC2CC2)Oc2c(NC(=O)Nc3cccc4ccccc34)cccc2C1=O | inactive | inactive | inactive |
| O=C(C[C@H]1CC[C@@H]2[C@H](COC[C@H](O)CN2S(=O)(=O)c2ccccc2F)O1)NCc1ccccc1Cl | inactive | inactive | inactive |
| COc1ccc(CNC(=O)C[C@@H]2C[C@@H]3c4cc(NC(=O)NC5CCCC5)ccc4O[C@@H]3[C@H](CO)O2)cc1 | inactive | inactive | inactive |
| Cc1noc(C)c1NC(=O)Nc1ccc2c(c1)C(=O)N([C@H](C)CO)C[C@H](C)[C@@H](CN(C)Cc1ccc(-c3ccccc3)cc1)O2 | inactive | inactive | inactive |
| COc1cc(C)c(C(=O)O)c(O)c1 | inactive | inactive | inactive |
| Cc1noc(C)c1S(=O)(=O)Nc1ccc2c(c1)C(=O)N([C@@H](C)CO)C[C@@H](C)[C@H](CN(C)S(=O)(=O)c1cccs1)O2 | inactive | inactive | inactive |
| N[C@H]1CCCN(C(=O)c2cccs2)C1 | inactive | inactive | inactive |
| COCC#Cc1cnc2c(c1)C(=O)N([C@@H](C)CO)C[C@H](C)[C@@H](CN(C)S(=O)(=O)c1cn(C)cn1)O2 | inactive | active | inactive |
| CN1C(=O)c2cc(NC(=O)C3CCCC3)ccc2OC[C@H]2O[C@H](CC(=O)NCCc3ccncc3)CC[C@H]21 | inactive | inactive | inactive |

| Compound | cytotoxicity call (HSkMC) | cytotoxicity call (HepG2) | growth inhibition call (S. aureus RN4220) |
| --- | --- | --- | --- |
| C[C@@H]1CN([C@@H](C)CO)C(=O)c2cc(NC(=O)Nc3cccc4ccccc34)ccc2O[C@@H](C)CCCCO[C@@H]1CN(C)Cc1ccc(C(=O)O)cc1 | inactive | inactive | inactive |
| C[C@H]1CN([C@@H](C)CO)C(=O)Cc2cc(NC(=O)c3ccncc3)ccc2O[C@H]1CN(C)S(C)(=O)=O | inactive | inactive | inactive |
| C=CC[C@@H](CC(=O)N(CCO)Cc1ccccc1)C(=O)N[C@H](COC(=O)[C@H](CC=C)NC(=O)OCC1c2ccccc2-c2ccccc21)c1ccccc1 | inactive | inactive | inactive |
| C[C@@H]1CN([C@@H](C)CO)C(=O)Cc2cc(NS(=O)(=O)c3cn(C)cn3)ccc2O[C@H]1CN(C)Cc1ccc2c(c1)OCO2 | inactive | inactive | inactive |
| C[C@H](CO)N1C[C@H](C)[C@@H](CN(C)S(=O)(=O)c2ccc(Cl)cc2)OCCCC[C@H](C)Oc2ccc(NC(=O)CCC(F)(F)F)cc2C1=O | inactive | inactive | inactive |
| COc1ccccc1-c1ccc2c(c1)O[C@@H](CN(C)C(=O)c1cccnc1)[C@H](C)CN([C@@H](C)CO)S2(=O)=O | inactive | inactive | inactive |
| C=CCOC(=O)[C@@H]1[C@H]2C(=O)O[C@H](c3ccccc3)[C@H](c3ccccc3)N2[C@H](c2ccc(OCCOC(=O)[C@H]3C[C@H]4C(=O)N[C@@H](CCCCNC(C)=O)C(=O)N4[C@H]3c3cccc(OCCO)c3)cc2)[C@@]12C(=O)Nc1ccc(I)cc12 | inactive | inactive | inactive |
| C[C@@H]1CN([C@H](C)CO)C(=O)Cc2cc(NC(=O)Nc3ccc(C(F)(F)F)cc3)ccc2O[C@H]1CN(C)C(=O)Nc1ccc2c(c1)OCO2 | inactive | inactive | inactive |
| C[C@H]1CN([C@@H](C)CO)C(=O)Cc2cc(NS(C)(=O)=O)ccc2O[C@@H]1CN(C)C | inactive | inactive | inactive |
| O=C(Cn1cc(CN2C(=O)COC[C@H]2c2ccccc2)nn1)N1CCC2(CC1)C(=O)NCN2c1ccccc1 | inactive | inactive | inactive |
| C[C@H](CO)NS(=O)(=O)c1ccnn1C | inactive | inactive | inactive |
| CN1CCN(C(=O)C[C@H]2CC[C@H]3[C@H](COc4ccc(NC(=O)C5CCCCC5)cc4C(=O)N3C)O2)CC1 | inactive | inactive | inactive |
| O=C1NS(=O)(=O)c2ccccc21 | inactive | inactive | inactive |
| C[C@H](CO)N1C[C@H](C)[C@@H](CN(C)C(=O)c2ccccn2)Oc2cc(Br)ccc2S1(=O)=O | inactive | inactive | inactive |
| C[C@@H]1CN([C@H](C)CO)S(=O)(=O)c2ccc(C3=CCCCC3)cc2O[C@H]1CN(C)Cc1cncnc1 | inactive | inactive | inactive |
| O=C(C[C@H]1C=C[C@H](NS(=O)(=O)c2ccc(F)cc2)[C@@H](CO)O1)NCCN1CCCCC1 | inactive | inactive | inactive |
| O=C(C[C@H]1C[C@@H]2c3cc(NS(=O)(=O)c4ccc(F)cc4)ccc3O[C@@H]2[C@H](CO)O1)NCc1ccncc1 | inactive | inactive | inactive |
| CC(C)NC(=O)Nc1ccc2c(c1)CC(=O)N([C@@H](C)CO)C[C@H](C)[C@H](CN(C)Cc1ccc(C(=O)O)cc1)O2 | inactive | inactive | inactive |
| CC(C)Cc1ccc([C@@H](C)C(=O)Nc2ccc(Cl)cc2)cc1 | inactive | active | inactive |
| C[C@@H]1CN([C@@H](C)CO)C(=O)c2cc(NC(=O)C3CCCCC3)ccc2O[C@H]1CN(C)C(=O)Nc1ccc(C(F)(F)F)cc1 | inactive | inactive | inactive |
| COc1cccc(S(=O)(=O)N(C)C[C@H]2Oc3ncc(C#CCC(C)C)cc3C(=O)N([C@H](C)CO)C[C@@H]2C)c1 | inactive | active | inactive |
| C[C@@H]1CCCCO[C@H](CN(C)Cc2ccncc2)[C@@H](C)CN([C@@H](C)CO)C(=O)c2cc(NC(=O)NC3CCCCC3)ccc2O1 | inactive | inactive | inactive |
| C[C@@H]1CCCCO[C@@H](CN(C)S(=O)(=O)c2cn(C)cn2)[C@H](C)CN([C@@H](C)CO)C(=O)c2cc(NC(=O)c3ccncc3)ccc2O1 | inactive | inactive | inactive |
| COc1ccc(NC(=O)Nc2ccc3c(c2)CC(=O)N([C@H](C)CO)C[C@@H](C)[C@H](CN(C)Cc2ccc(C(=O)Nc4ccccc4N)cc2)O3)cc1 | inactive | inactive | inactive |
| C[C@@H]1CN([C@@H](C)CO)C(=O)c2cc(NC(=O)Nc3cccc4ccccc34)ccc2O[C@@H](C)CCCCO[C@@H]1CN(C)Cc1ccc2c(c1)OCO2 | inactive | inactive | inactive |
| CN1CCN(C(=O)[C@@H]2[C@@H](CO)[C@@H]3Cn4c(cccc4=O)[C@H]2N3Cc2ccncc2)CC1 | inactive | inactive | inactive |
| CC(C)CS(=O)(=O)C1CN(S(C)(=O)=O)C1 | inactive | inactive | inactive |
